Measurements: PubChem BioAssay AID1508623 (National Center for Advancing Translational Sciences (NCATS), 2021)
Out of some 48,000 compounds screened, about 450 (0.94%) were called active. About 19% were inconclusive and are not listed. The call rests on the fitted dose curve; in most records, active means well fitted inhibition curve with a large enough effect; inconclusive means small, poorly fitted or top-dose-only effect; inactive means no such curve, though single readings can be large or run the other way. The list shows a part of the results.

experiment: Primary qHTS for Identification of Small Molecule Inhibitors of Huntingtin Promoter Activity; settings: HEK293 HTT promoter firefly luciferase reporter (activity 0% = vehicle and -100% = no light), 24 h; series mostly up to 57.5 µM; activity change, negative = inhibition: at the top concentration; further: nearly all actives have a fitted effect of over 50% in size
Method in brief: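 Luminescence was read after Dual-Glo reagent and a 10 min room-temperature incubation. Values were normalized to vehicle (0% activity) and zero RLU (-100% activity). Reporter HEK293 cells had been exposed to compounds (up to 57.5 uM final) for 24 h.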
Potency means the concentration at half of the fitted maximal effect.

Compound | activity change, negative = inhibition | Potency
COCCCNC(=O)c1cc2c(=O)oc3ccc(C)cc3c2s1 | inactive: -17% | –
CCc1nc2ccc(C(=O)N3CCN(c4cccc(C)c4C)CC3)cc2nc1CC | inactive: -10.4% | –
Cc1ccc(-c2nc3c4ccccc4[nH]c(=O)n3n2)cc1 | inactive: 63.8% | –
CCOc1ccc(-c2cc(OC(=O)c3ccc(OC)cc3)c3c(C)oc(C)c3c(=O)c2)cc1 | inactive: -25.3% | –
O=C1CC(c2cccc(O)c2)c2c(nc(SCc3ccccc3F)[nH]c2=O)N1 (stereo not drawn) | inactive: -4.11% | –
CCOc1ccc(C(=O)N(Cc2sccc2C)C2CCS(=O)(=O)C2)cc1 (stereo not drawn) | inactive: -17.6% | –
CCn1c2ccccc2c2cc(CN3CCN(Cc4ccccc4Cl)CC3)ccc21 | inactive: -14.3% | –
COc1cccc(NC(=O)CSc2nc3cc(OC)c(OC)cc3c3nc(-c4ccccc4)nn23)c1 | inactive: 4.02% | –
COc1cc(OC)c(NC2(c3ccccc3)C(=O)c3ccccc3C2=O)cc1Cl | inactive: -5.02% | –
CC(=O)Nc1ccc(S(=O)(=O)Nc2cc(C)on2)cc1 | inactive: 10.2% | –
Cc1ccc(CN2CCCN(CC(=O)Nc3ccc(C)cc3C)S2(=O)=O)cc1 | inactive: -3.46% | –
O=c1c(-c2cc(-c3ccccc3)nc3c2COc2ccc(Cl)cc2-3)coc2ccc(F)cc12 | inactive: -7.34% | –
O=C(Nc1nc2n(n1)C(c1ccc(F)cc1)C=C(c1ccccc1)N2)c1ccco1 (stereo not drawn) | inactive: -21.1% | –
Cc1c(Cl)cccc1NC(=O)c1ccc2c(c1)CCN2S(=O)(=O)c1ccccc1 | inactive: -18.3% | –
CN(C)CCNc1ncnc2c1cnn2-c1cccc(Cl)c1 | inactive: -2.09% | –
NC1CCN(c2nc3c(cc2F)c(=O)c(C(=O)O)cn3-c2ccc(F)cc2F)C1 (stereo not drawn) | inactive: 23.2% | –
CN(C)c1ccc(C(CNC(=O)c2ccccc2C(F)(F)F)N2CCOCC2)cc1 (stereo not drawn) | inactive: 7.14% | –
COc1ccc(CNC(=O)C2CCCN(S(=O)(=O)c3cccc4nsnc34)C2)cc1 (stereo not drawn) | inactive: -29% | –
Cn1nnnc1SCCCNCc1cc(Cl)ccc1OCc1ccc(F)cc1 | inactive: -28.1% | –
COC(=O)c1c(NC(=O)c2nc(SCc3ccc(F)cc3)ncc2Cl)sc2c1CCCC2 | inactive: -21.2% | –
Cc1nn2c(=O)cc(COC(=O)Cc3ccccc3)nc2s1 | inactive: -5.59% | –
CCNC(=O)/C=C/c1cccc(Br)c1 | inactive: 14.7% | –
CCC1CN(C(=O)N2CCC(C(=O)Nc3ccccc3F)CC2)c2ccccc2O1 (stereo not drawn) | inactive: -13.9% | –
CCCC(=O)Nc1ccccc1OCc1cc(=O)n2cc(C)ccc2n1 | inactive: -5.72% | –

Compound | activity change, negative = inhibition | Potency
COc1ccc(NC(=O)CN2C(=O)COc3ccc(S(=O)(=O)N4CCCCCC4)cc32)cc1 | inactive: -27.7% | –
Cc1ccc(C)c(N2CCN(c3c(CN4CCCC4)c(=O)oc4ccccc34)CC2)c1 | inactive: 4.58% | –
O=C(Nc1cccc(Cl)c1Cl)c1cc(S(=O)(=O)NCc2ccc3c(c2)OCO3)ccc1F | inactive: -9.5% | –
CCc1ccc(S(=O)(=O)N(C(=O)c2ccncc2)c2ccc3oc(C)c(C(=O)OC)c3c2)cc1 | – | active: 12.6 µM
COc1ccc(CC(=O)N2CCc3cc(OC)c(OC)cc3C2COc2cc(C)cc(C)c2)cc1OC (stereo not drawn) | inactive: -23.9% | –
Cc1nn(S(=O)(=O)c2ccc(Br)cc2)c(C)c1S(=O)(=O)N1CCCCCC1 | inactive: -4.97% | –
Cc1cc(C)cc(NC(=O)CCS(=O)(=O)c2cccc3nsnc23)c1 | inactive: -0.75% | –
CCc1ccc(N(CC)C(=O)c2cc3c(=O)oc4ccc(C)cc4c3s2)cc1 | inactive: 6.5% | –
COc1cccc(NC(=O)C(=O)NCC(c2ccc3c(c2)OCO3)N2CCN(C)CC2)c1 (stereo not drawn) | inactive: 88% | –
Cc1cccc(C)c1Nc1nn2c(=O)c3cc4c(cc3nc2s1)OCO4 | inactive: -6.67% | –
Cc1cccc(NC(=O)CSc2ccc(-c3ccccn3)nn2)c1 | inactive: -22.4% | –
CCCCN(CC)CCCNC(=O)c1cc2c(=O)[nH]c3ccccc3c2n1C | inactive: -6.06% | –
COc1ccc(NC(=O)CCCSc2nc(-c3ccco3)cc(C(F)(F)F)n2)cc1OC | inactive: -11.6% [at 11.5 µM] | –
CCc1ccc(-c2cn3c(n2)sc2cc(C(=O)NC4CCCCC4)ccc23)cc1 | inactive: -7.44% | –
COc1cccc(-c2nc(S(=O)(=O)c3ccc(Cl)cc3)c(NCc3ccccc3)o2)c1 | inactive: -21.9% | –
COc1cccc(C(=O)Nc2cccc(OCc3cc(=O)n4c5c(sc4n3)CCCC5)c2)c1 | inactive: 7.36% | –
CC(=O)Nc1ccc(NS(=O)(=O)c2c(C(=O)N3CCC(C)CC3)c(C)n(C)c2C)cc1 | inactive: -18.6% | –
COc1ccc2oc(=O)c(C(=O)NCCc3c(C)[nH]c4ccc(F)cc34)cc2c1 | inactive: -2.25% | –
COCCNc1oc(-c2ccccc2)nc1S(=O)(=O)c1ccc(Br)cc1 | inactive: -22.6% | –
COc1ccc2sc(N(Cc3cccnc3)C(=O)c3ccc4c(c3)OCCO4)nc2c1 | – | active: 11.2 µM
CC(C)CCNC(=O)c1cc2cc(S(=O)(=O)N3CCCCC3)ccc2n1C | inactive: -26.2% | –
O=C(NCCc1ccccc1Cl)c1sc2ncccc2c1-n1cccc1 | inactive: 0% | –
O=C(NC1CCN(CCc2c[nH]c3ccccc23)CC1)c1ccccc1 | inactive: -8.7% | –
CCC(=O)N1c2ccccc2CC1C(=O)NCCc1ccccc1 (stereo not drawn) | inactive: -24.6% | –
